# From PubChem BioAssay AID485294 (National Center for Advancing Translational Sciences (NCATS), 2010)
# Several values for one entry are separate records, joined by “and”; a condition that tells them apart may be missing. Identical values can stand only once. The whole screen tested about 370,000 compounds, of which about 150 (0.041%) were called active. The shares of active, inactive and inconclusive entries below differ from those in the screen. The call rests on the fitted dose curve; in most records, active means well fitted inhibition curve with a large enough effect; inconclusive means small, poorly fitted or top-dose-only effect; inactive means flat fitted curve, though single readings scatter. Potencies beside an inconclusive call are fits to weak or partial responses and may not hold up.
# Molecular target: Beta-lactamase (Escherichia coli (strain K12)) (UniProt P00811)
# Assay: qHTS Inhibitors of AmpC Beta-Lactamase (assay with detergent); further: nearly all actives have a fitted effect of over 25% in size
# Conditions: AmpC hydrolysis of nitrocefin, absorbance 480 nm, 0.01% Triton; series mostly up to 114 µM
# Procedure, shortened: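 20 mM phosphate pH 7.0 + 0.01% (detergent screen) or 0.0001% Triton X-100; 5.3 nM AmpC reagent; cpd preinc 15 min RT; nitrocefin (800 uM stock) to start; A480 q20 s × 4 min; Activity was normalised to no-enzyme and no-compound control wells.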
# Potency means the concentration at half of the fitted maximal effect; tags describe the fitted curve by direction and shape.
# Chain of UniProt P00811 (P00811 whole entry, looked up): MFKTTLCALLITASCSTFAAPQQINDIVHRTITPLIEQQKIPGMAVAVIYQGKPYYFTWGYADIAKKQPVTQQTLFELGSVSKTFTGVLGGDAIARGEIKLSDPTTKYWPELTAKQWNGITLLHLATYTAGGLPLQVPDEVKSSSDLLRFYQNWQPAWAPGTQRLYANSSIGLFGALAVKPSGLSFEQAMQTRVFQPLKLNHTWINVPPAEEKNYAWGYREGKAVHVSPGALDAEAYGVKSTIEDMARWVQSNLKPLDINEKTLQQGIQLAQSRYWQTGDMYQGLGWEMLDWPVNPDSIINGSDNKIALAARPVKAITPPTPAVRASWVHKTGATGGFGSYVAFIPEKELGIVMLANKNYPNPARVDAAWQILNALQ
row,SMILES,Potency
1,O=C(Nc1ccc(S(=O)(=O)Nc2ccc(Cl)cc2)cc1)C1CCCO1 (stereo not drawn),"inconclusive: 35.5 µM [inhibitor, full curve, poor fit]"
2,CCc1nc(Nc2ccncc2)c2oc3ccccc3c2n1,"inconclusive: 28.2 µM [inhibitor, full curve, poor fit]"
3,Cc1cc(C(=O)NCCc2ccc(Cl)cc2)c2c(C)nn(-c3cccc(F)c3)c2n1,inactive
4,N/C(=N\OC(=O)COc1ccc(Cl)cc1)c1ccc(Cl)cc1,"inconclusive: 5.62 µM [inhibitor, full curve, poor fit]"
5,COc1ccc(-c2cnc(SCCNC(=O)c3ccc4c(c3)OCO4)[nH]2)cc1,"inconclusive: 112 µM [inhibitor, partial curve, poor fit]"
6,C=CCNC(=O)C1CCN(c2cnccn2)CC1,inactive
7,CCCCCCSc1ccc([C@H]2N[C@@](CC(C)C)(C(=O)OC)[C@H]3C(=O)N(C)C(=O)[C@@H]23)cc1,"inconclusive: 2.51 µM [inhibitor, single point]"
8,S=C(Nc1ccc(OCc2ccccc2)cc1)Nc1cccc(Cl)c1Cl,"inconclusive: 79.4 µM [inhibitor, partial curve]"
9,CCOc1ccc(CN(C)CC(=O)Nc2cccc3ccccc23)cc1OC,"inconclusive: 25.1 µM [inhibitor, full curve, poor fit]"
10,O=Cc1ccnc(-c2ccc(OC(=O)c3ccco3)cc2)n1,"inconclusive: 35.5 µM [inhibitor, partial curve]"
11,Cc1ccc(N2CC(C(=O)NCCN3CCOCC3)CC2=O)cc1C (stereo not drawn),inactive
12,O=C(OCC1CC(c2ccccn2)=NO1)c1ccc(Br)cc1 (stereo not drawn),"inconclusive: 3.16 µM [inhibitor, full curve]"
13,CN(CC(=O)Nc1ccc(F)c(F)c1F)C1CCCCC1,"inconclusive: 0.631 µM [inhibitor, full curve, poor fit]"
14,COc1ccccc1-n1cnnc1SCC(=O)NC1CCCC1,"inconclusive: 89.1 µM [inhibitor, partial curve]"
15,CCc1ccc(NC(=O)CSc2nc(N)c(NC(=O)c3ccc(F)c(F)c3)c(=O)[nH]2)cc1,inactive
16,O=S(=O)([O-])CCC[n+]1c(SCCCS(=O)(=O)O)sc2ccc(Cl)cc21,"inconclusive: 79.4 µM [inhibitor, partial curve, poor fit]"
17,O=C(NCc1ccc(F)cc1)c1cc2ccccn2n1,"inconclusive: 89.1 µM [inhibitor, single point]"
18,Cc1ccc2nc3c(c(Nc4ccc5c(c4)OCCO5)c2c1)CCC3,"inconclusive: 4.47 µM [inhibitor, full curve, poor fit]"
19,CS(=O)(=O)N(CC(=O)N/N=C/c1cccc2c1OCCO2)c1ccccc1Br,inactive
20,COc1ccc(Cn2nnnc2C(C(C)C)N(Cc2ccco2)Cc2cccs2)cc1 (stereo not drawn),inactive
21,Cc1ccc2cc3c(NC(=O)C(C)C)nn(C)c3nc2c1,"inconclusive: 12.6 µM [inhibitor, full curve, poor fit]"
22,Cc1ccc(CN2C(=O)CCC2C(=O)NCC2CCCO2)cc1 (stereo not drawn),"inconclusive: 25.1 µM [inhibitor, full curve, poor fit]"

row,SMILES,Potency
1,Cc1ccc(O)c(C(=O)c2cc(C#N)c(=O)n(-c3c(C)n(C)n(-c4ccccc4)c3=O)c2)c1,inactive
2,CCc1ccc(NC2CC(=O)N(c3ccc(OC)cc3OC)C2=O)cc1 (stereo not drawn),"inconclusive: 89.1 µM [inhibitor, single point]"
3,Fc1ccc(CNc2ncnc3c2cnn3-c2ccccc2)cc1,inactive
4,Cc1cccc(NC(=S)N/C(=N/S(=O)(=O)c2ccccc2)c2ccccc2)c1,"inconclusive: 89.1 µM [inhibitor, single point]"
5,CCOC(=O)N1CCC(NC(=O)CS(=O)Cc2nc(-c3ccccc3C)oc2C)CC1 (stereo not drawn),inactive
6,CCOC(=O)C1=C(C)NC(=O)NC1c1c(OCC(=O)N2CCCCC2)ccc2ccccc12 (stereo not drawn),"inconclusive: 89.1 µM [inhibitor, partial curve, poor fit]"
7,COc1ccc(C(=O)Nc2nc3ccccc3[nH]2)cc1,"inconclusive: 3.98 µM [inhibitor, partial curve]"
8,CCC(=O)N1CC2(C)CN(C(=O)CC)CC(C)(C1)C2,"inconclusive: 2.51 µM [inhibitor, full curve, poor fit]"
9,O=C1CC(c2ccc(Cl)cc2)CC(O)=C1C=NCc1ccc(Cl)c(Cl)c1 (stereo not drawn),inactive
10,FC(F)(F)c1cnc2c(c1)Nc1ccccc1S2,"inconclusive: 0.631 µM [inhibitor, full curve, poor fit]"
11,Cc1cc(C)n(/N=C/c2cccc(O)c2)c(=O)c1C(N)=O,"inconclusive: 2.24 µM [inhibitor, partial curve, poor fit]"
12,Cc1ccc(NS(=O)(=O)c2cc([N+](=O)[O-])ccc2NNC(=S)Nc2cccc(Cl)c2)c(C)c1,"inconclusive: 31.6 µM [inhibitor, full curve, poor fit]"
13,Cc1cc([N+](=O)[O-])ccc1NC(=O)c1ccco1,inactive
14,COc1cc(Cc2cnc(N)nc2N)cc(OC)c1OC,"inconclusive: 112 µM [inhibitor, partial curve, poor fit]"
15,CN1CCc2c(sc(NC(=O)c3cc(Cl)sc3Cl)c2C(N)=O)C1,inactive
16,COc1ccc(C[C@H]2CN3C(=NC[C@H]3C)N2CCNC(=O)c2ccc(C)c(Br)c2)cc1,inactive
17,CCOC(=O)CNC(=O)Cn1cnc2c(cnn2-c2ccc(C)cc2)c1=O,"inconclusive: 1.78 µM [inhibitor, full curve, poor fit]"
18,Cc1ccc(SCC(=O)NCCc2ccccc2)cc1,inactive
19,COC(=O)NCC(c1ccc2c(c1)OCO2)N1CCN(c2ccccc2)CC1 (stereo not drawn),"inconclusive: 8.91 µM [inhibitor, full curve, poor fit]"
20,O=C(O)c1ccc(NC(=S)NC(=O)c2cncc(Br)c2)cc1,inactive
21,CN(C)[C@@H]1C(=O)C(C(N)=O)=C(O)[C@@]2(O)C(=O)C3=C(O)c4c(O)cccc4[C@@](C)(O)C3[C@H](O)C12 (stereo partly drawn),"inconclusive: 2.82 µM [inhibitor, full curve] and inconclusive: 7.94 µM [inhibitor, full curve, poor fit]"
